In PubChem BioAssay AID463173 (ICCB-Longwood Screening Facility, Harvard Medical School, 2010):
Hit rate of the full screen: of about 52,000 compounds, about 1,700 (3.3%) were called active. Cut-off read from the data, not from the text of the source: active = survival mostly below about 52% (no sharp cut-off); inactive = mostly above about 56%. The list shows a part of the results.

System: Wild type
Test: growth inhibition of S. aureus wild type versus tarO mutant, primary screen, teichoic acid synthesis inhibitors, RN4220, OD600 (AID 463173)
Conditions: S. aureus RN4220 wild type/DeltatarO growth, OD600, 18 h, active compounds read low, screened at 18.75 µg/mL (by protocol)

SMILES | survival
Cc1ccc(-c2cn3c(n2)sc2cc(C(=O)NCc4cccs4)ccc23)cc1 | inactive: 87%
Cc1oc(-c2ccccc2)nc1CSc1nnc(C)n2c1cc1sccc12 | inactive: 83%
CCOCCCNC(=O)CCC(=O)NNc1nc2ccccc2c2nc(-c3ccccc3)nn12 | inactive: 81%
O=C(CCc1nnc2n(Cc3ccccc3Cl)c(=O)c3ccccc3n12)Nc1ccc(F)c(F)c1 | inactive: 89%
Cc1ccc(-n2nc(CO)c(C(=O)NCC(c3ccccc3)c3ccccc3)n2)cc1 | inactive: 95%
O=C(NCc1cccc(Br)c1)C1CCN(C(=O)c2sccc2-n2cccc2)CC1 | inactive: 91%
CCCCNC(=O)Cn1c(=O)cc(C)c2c(C)nn(-c3ccc(CC)cc3)c21 | inactive: 66%
CCC1CN(C(=O)N2CCC(C(=O)NCCc3ccc(C)cc3)CC2)c2ccccc2O1 (centres undefined) | inactive: 86%
Oc1cccc(N=Cc2c[nH]c3ccccc23)c1 | inactive: 99%
COc1cccc(Nc2cc(-c3ccccc3)nc(C)n2)c1 | inactive: 49%
Cc1ccc(C)c(N2CCN(C(=O)c3cc(S(=O)(=O)N4CCCC4)c[nH]3)CC2)c1 | inactive: 112%
CCCOc1ccc(C(=O)Nc2ccc(NC(=O)c3cccc(Cl)c3)cc2)cc1 | inactive: 80%
CCOC(=O)c1cc2oc(C)cc2n1CC(=O)N(C)C1CCCCC1 | inactive: 115%
Cc1cccc(Nc2ncnc3c2cnn3C)c1C | inactive: 84%
COc1ccc(C)c2sc(N(Cc3cccnc3)C(=O)COc3ccccc3)nc12 | inactive: 87%
COc1ccc(NC(=O)c2c(NCc3cccc(OC)c3)sc3c2CCC3)cc1 | inactive: 65%
CCc1ccc(S(=O)(=O)Nc2cc(-c3cn4ccccc4n3)ccc2C)cc1 | inactive: 94%
Cc1ccc(-n2ncc3c(N4CCN(C)CC4)ncnc32)cc1 | inactive: 55%
Cc1ccc2c(c1)N(C(=O)N1CCC(C(=O)NC3CCCCCC3)CC1)CCO2 | inactive: 82%
COc1cc(OC)cc(C(=O)NCc2ccc3c(c2)CCN3C(=O)c2ccccc2)c1 | inactive: 84%
O=C(Cn1nc(C(F)F)cc1C1CC1)NCCC1=CCCCC1 | inactive: 117%
CN(C)c1ccc(-c2nc(-c3ccncc3)no2)cc1[N+](=O)[O-] | inactive: 62%
NC(=O)CSc1ncnc2c1cnn2-c1ccccc1 | inactive: 110%

SMILES | survival
COc1ccc(Cn2c(C(=O)O)c(CNC3CCC(C)CC3)c3ccc(C)cc32)cc1 (centres undefined) | inactive: 111%
COc1cc(C(=O)N2CCC(c3ccncc3)CC2)cc(OC)c1OC | inactive: 78%
CCOc1ccc(Nc2c(S(=O)(=O)c3ccc(C)cc3)cnc3ccc(OC)cc23)cc1 | inactive: 73%
C/C(=N\NC(=O)CCc1ccccc1)c1cccc(N)c1 | inactive: 108%
COc1ccc(CC(=O)N2CC(=O)Nc3ccc(Br)cc3C2c2ccc(F)cc2)cc1OC (centres undefined) | inactive: 137%
CCc1c(C)nc2cc(-c3ccc(OC)c(OC)c3)nn2c1NCC(C)(C)CN(C)C | inactive: 109%
COc1cc2nc(NCc3ccccc3Cl)n3nc(-c4cccnc4)nc3c2cc1OC | inactive: 121%
CC(=O)N1CCCc2cc(S(=O)(=O)NCc3ccc(N(C)C)cc3)ccc21 | inactive: 72%
COc1cccc(CNC(=O)c2cc(-c3cccs3)nc3ccccc23)c1 | inactive: 87%
COCCCNC(=O)CSc1nc2nc(C)c(Cc3ccccc3Cl)c(C)n2n1 | inactive: 83%
Cn1nc(-c2ccccc2)c(-c2ccccc2)c(C(=O)Nc2ccc(S(N)(=O)=O)cc2)c1=O | inactive: 90%
COc1cccc(C(=O)Nc2ccc3nc(SCc4ccc(C)cc4)sc3c2)c1 | inactive: 78%
Cc1cccc(-n2c(SCC(=O)Nc3ccccc3Cl)nc3n[nH]c(C)c3c2=N)c1 | inactive: 72%
CC(C)(Oc1ccc(Cl)cc1)C(=O)Nc1ccc(Cl)cn1 | inactive: 119%
CSc1ccc(CCNC(=O)c2sc3ncccc3c2-n2cccc2)cc1 | inactive: 74%
O=C(NCC(c1cccnc1)N1CCOCC1)C(=O)Nc1cccc(Cl)c1 (centres undefined) | inactive: 85%
COc1ccc(C(c2nnnn2C(C)(C)C)N2CCN(c3ccccc3)CC2)cc1 (centres undefined) | inactive: 104%
CCOc1ccc(NC(=O)CN2C(=O)CCSc3ccc(S(=O)(=O)N4CCCC4)cc32)cc1 | inactive: 71%
COc1cccc(-n2cc(C(=O)NCCc3cccc(C)c3)c3ccccc3c2=O)c1 | inactive: 89%
Cc1cc(C)nc(Nc2nc3ccccc3s2)n1 | inactive: 109%
Cc1ccc(C)c(N2CCN(C(=O)C(C)n3nc(C)c4sc5ccccc5c4c3=O)CC2)c1 (centres undefined) | inactive: 110%
COC(=O)c1ccc(NC(=O)N2CCc3c([nH]c4ccccc34)C2c2ccc(C)cc2)cc1 (centres undefined) | inactive: 100%
CC(C)c1cc2cc(/C=C/C(=O)O)c(O)cc2o1 | inactive: 39%

SMILES | survival
COc1ccccc1CNC(=O)C1CCN(c2nn3c(=O)cc(C)nc3s2)CC1 | inactive: 83%
O=C(NCc1ccccc1Cl)C(=O)NCC(c1ccco1)S(=O)(=O)c1cccs1 (centres undefined) | inactive: 47%
COc1ccc(Cn2c(=O)c3oc4ccccc4c3n(CC(=O)Nc3cc(C)cc(C)c3)c2=O)cc1 | inactive: 90%
Cc1c2cnn(CC(=O)NCCc3ccccc3)c(=O)c2c(C)n1Cc1ccccc1Cl | inactive: 97%
CCC1CCCCN1CCCNC(=O)c1ccc2c(c1)N(Cc1cccc(C)c1)C(=O)c1ccccc1S2(=O)=O (centres undefined) | inactive: 126%
CCC1CCCCN1CCCNC(=O)c1cc2c(Cl)nc3ccc(C)cc3c2s1 (centres undefined) | inactive: 66%
CCc1ccc(NC(=O)CSc2nc(=O)n(Cc3cccnc3)c3c2CCC3)cc1 | inactive: 74%
COc1cc(C(=O)NCC(c2ccc(N(C)C)cc2)N2CCCC2)cc(OC)c1OC (centres undefined) | inactive: 53%
COc1ccc(/C=C(\C#N)c2nc(-c3ccc(Cl)c(Cl)c3)cs2)cc1OC | inactive: 77%
Cc1ccc(S(=O)(=O)N(C)c2ccc3sc(C)nc3c2)cc1 | inactive: 111%
CCOc1ccc(NC(=O)CSc2nc3nc(C)c(Cc4ccccc4)c(C)n3n2)cc1 | inactive: 85%
CCc1ccccc1NC(=O)CSc1nc2c(oc3ccccc32)c(=O)n1-c1ccccc1 | inactive: 89%
O=C(COc1ccccc1F)NC1CC(=O)N(c2ccc3c(c2)OCCO3)C1 (centres undefined) | inactive: 86%
Cc1ccc(-c2nc3ccc(Br)cn3c2Nc2ccc3c(c2)OCO3)o1 | inactive: 61%
CCOc1ccccc1CNS(=O)(=O)c1cnc(N)nc1 | inactive: 55%
COc1ccccc1Cn1c(CNS(=O)(=O)c2ccc(Cl)s2)nc2cccnc21 | inactive: 73%
CC1=NC(C)(C)Cc2ccccc21 | inactive: 106%
CC(=O)c1cccc(NC(=O)Cn2cnc3c2c(=O)n(C)c(=O)n3C)c1 | inactive: 67%
OCCCNC(c1ccccc1)c1ccc(O)cc1 (centres undefined) | inactive: 101%
CCC(=O)N1CCc2cc(Br)cc(S(=O)(=O)N3CCCC(C(=O)Nc4ccc(CC)cc4)C3)c21 (centres undefined) | inactive: 89%
CCOC(=O)c1cccc(NC(=O)Cc2ccc(NC(=O)N3CCCCc4ccccc43)cc2)c1 | inactive: 88%
CCOC(=O)c1c(C)[nH]c(C)c1S(=O)(=O)N1CCCC(C(=O)N2CCN(c3ccc(Cl)cc3)CC2)C1 (centres undefined) | inactive: 72%
O=C1Nc2c(c(=O)[nH]c(=O)n2-c2ccc(Cl)cc2)C1(NS(=O)(=O)c1ccccc1)C(F)(F)F (centres undefined) | inactive: 60%

SMILES | survival
CCOC(=O)c1ccc(N2CCN(c3cccc(Cl)c3)CC2)c(NC(=O)Nc2ccc(Cl)cc2)c1 | inactive: 76%
Cc1ccc(C)c(NC(=O)CCn2cnnn2)c1 | inactive: 157%
Cc1nnc(N2CCN(c3ccccc3)CC2)c2c1nnn2Cc1ccc(F)cc1 | inactive: 89%
O=C(Nc1ccccc1C(=O)OCc1cc(=O)n2c3c(sc2n1)CCCC3)c1ccc(Cl)cc1 | active: -3%
CCOC(=O)c1[nH]c(C)c(CCC(=O)N2CCN(c3cc(Cl)ccc3C)CC2)c1C | inactive: 72%
COc1ccc(Cl)cc1NC(=O)C1CCCN(c2cc(C)nc3ncnn23)C1 (centres undefined) | inactive: 113%
S=c1[nH]c2ccc(Cl)cc2[nH]1 | inactive: 107%
CCCCOC(=O)c1ccc(NC(=O)c2ccc3c(c2)CCN3S(=O)(=O)c2ccccc2)cc1 | inactive: 83%
O=C(Nc1ccc(F)cc1F)c1ccc(-c2ccccc2)s1 | inactive: 91%
COc1ccc(C)cc1N(CC(=O)N1CCC(C)CC1)S(=O)(=O)c1ccc(C)cc1 | inactive: 69%
Nc1c(C(=O)c2ccc3c(c2)OCO3)sc(Nc2ccccc2F)c1S(=O)(=O)c1ccccc1 | inactive: 70%
Cc1ccc2nc(CSc3nnc(NC(=O)COc4ccccc4F)s3)cc(=O)n2c1 | inactive: 81%
O=C(CCCn1c(=O)c2sccc2n(Cc2c(F)cccc2Cl)c1=O)NCc1ccccc1 | inactive: 149%
Cc1cnc2c(c1SCC(=O)N(C)c1ccccc1)c(=O)n(C)c(=O)n2C | inactive: 100%
CCCC(=O)Nc1ccc2nn(-c3ccc(CC)cc3)nc2c1 | inactive: 74%
Cn1c(=O)c2c(-c3ccccc3Br)n(C(C)(C)C)cc2n(C)c1=O | inactive: 112%
COc1ccc(C2CC(=O)c3cc(-c4nc(-c5cccc([N+](=O)[O-])c5)cs4)c(=O)n(-c4cc(C)cc(C)c4)c3C2)cc1 (centres undefined) | inactive: 80%
CCOC(=O)CSc1nc2sc3c(c2c(=O)n1CC)CCCC3 | inactive: 88%
Cc1cccc(NC(=O)Cn2nc(C)c3nn(-c4ccc(Cl)cc4)c(C)c3c2=O)c1C | inactive: 87%
COc1ccc(N(C(=O)Cn2nnc3ccccc32)C(C(=O)NCC2CCCO2)c2sccc2C)cc1 (centres undefined) | inactive: 114%
